From the RNAGym collection of RNA variant scans (doi:10.1073/pnas.2313332121)
Variants at the floor of the assay are shown more often than the library holds them.

B1: TPR 5TU (parent)
chain: GGAUCUUCUCGAUCUAACAAAAAAGACAAAUCUGCCACAAAGCUUGAGAGCAUCUUCGGAUGCAGAGGCGGCAGCCUUCGGUGGCGCGAUAGCGCCAACGUUCUCAACUAUGACACGCAAAACGCGUGCUCCGUUGAAUGGAGUUUAUCAUG

Variants of: B1
Assay: polymerase ribozyme fitness, log enrichment relative to wild type (log ratio); higher = more active; in vitro selection for triplet polymerase activity
How it was run: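 The heterodimeric triplet polymerase ribozyme's subunits were each mutagenized into PCR-built libraries and transcribed. Every library was selected once, in triplicate, by annealing with a biotinylated primer, the partner subunit and triplets, incubating frozen at −7 °C, gel-excising extended constructs, capturing on streptavidin beads and running RT-PCR. Input and output libraries were Illumina-sequenced, with genotypes kept only at ≥10 input reads and ≥1 read per output. Fitness, from inverse-variance-weighted replicate averages, is the base-2 logarithm of genotype enrichment over wild-type enrichment.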
With C27G C54A C93A A115U the “polymerase ribozyme fitness (log ratio)” value was at most -4.2.
For A26U U53A C87A C99A G143C, the “polymerase ribozyme fitness (log ratio)” value was at most -4.2.
In the case of A28G C93U U127C, the “polymerase ribozyme fitness (log ratio)” value is reported as at most -4.2.
For A26U A47C G84U A89U C93A C123G U134C, the “polymerase ribozyme fitness (log ratio)” value was at most -4.2.
In the case of A28C U82A, the “polymerase ribozyme fitness (log ratio)” value is reported as at most -4.2.
In the case of A28G A39C C87A G117A A121U G140U, the “polymerase ribozyme fitness (log ratio)” value is reported as at most -4.2.
In the case of C27U U31A A60U A66C C85U C87G G141U, the “polymerase ribozyme fitness (log ratio)” value is reported as at most -4.2.
With C27A U44A C63U U77A C85U G86U U144C the “polymerase ribozyme fitness (log ratio)” value was at most -4.2.
In the case of A26U U56A, the “polymerase ribozyme fitness (log ratio)” value is reported as -2.17.
For A26U A52U U53A C54U C99U A115G C123U U144A, the “polymerase ribozyme fitness (log ratio)” value was at most -4.2.
With A28G C43A A49C C85G U90C A122G U130G the “polymerase ribozyme fitness (log ratio)” value was at most -4.2.
With C27A A28U A39C C54G C96A the “polymerase ribozyme fitness (log ratio)” value was at most -4.2.
For A28U A39C G70A C96G C105U A120U C125A C129G, the “polymerase ribozyme fitness (log ratio)” value was at most -4.2.
With A28C A60G C75G A119C A120C G140U the “polymerase ribozyme fitness (log ratio)” value was at most -4.2.
For C27A C51A U53A U55G C79A G84U C108A C131G, the “polymerase ribozyme fitness (log ratio)” value was at most -4.2.
For A26U A30U A37C U61A A66C G67C C69U C87A C105A C125U, the “polymerase ribozyme fitness (log ratio)” value was at most -4.2.
For A26U G46C U55A C93U C103A A106G C114A, the “polymerase ribozyme fitness (log ratio)” value was at most -4.2.
With C27G G65A C76G G86A G88C the “polymerase ribozyme fitness (log ratio)” value was at most -4.2.
For A28U A37U U55A G68A C72A C85U C95U, the “polymerase ribozyme fitness (log ratio)” value was at most -4.2.
For C27G C72U U134A U135G, the “polymerase ribozyme fitness (log ratio)” value was at most -4.2.
In the case of A28U A30U A39U G50C C57G C75G U82A G83C G124U, the “polymerase ribozyme fitness (log ratio)” value is reported as at most -4.2.
For A26U C35U C85U U90G C93G U148C, the “polymerase ribozyme fitness (log ratio)” value was at most -4.2.
With A28C A30U C57U G58A G59A G68U C69U the “polymerase ribozyme fitness (log ratio)” value was at most -4.2.
In the case of C27A C38U A52C U53G C72A U77C C79G G84A G124A U146C, the “polymerase ribozyme fitness (log ratio)” value is reported as at most -4.2.
With C27U C38G C87A U102A C103G the “polymerase ribozyme fitness (log ratio)” value was at most -4.2.
In the case of A26U G59C C79A G133U U151G, the “polymerase ribozyme fitness (log ratio)” value is reported as at most -4.2.
For A26G G140A, the “polymerase ribozyme fitness (log ratio)” value was at most -4.2.
With C27U A40U G58C G59U G92U the “polymerase ribozyme fitness (log ratio)” value was -2.23.
With A26U C54A C63U A73G C93U the “polymerase ribozyme fitness (log ratio)” value was at most -4.2.
For C27A A39U C87G C149A, the “polymerase ribozyme fitness (log ratio)” value was at most -4.2.
For C27U A47C U56G C76U U78A G94A A97U C118U, the “polymerase ribozyme fitness (log ratio)” value was at most -4.2.
For A26U G34U G59C G62A C75G C93G U104A G152A, the “polymerase ribozyme fitness (log ratio)” value was at most -4.2.
For A26G C32A C38G G83C C95U A119U, the “polymerase ribozyme fitness (log ratio)” value was at most -4.2.
In the case of A26G C27U A37G A40U G42U A122G, the “polymerase ribozyme fitness (log ratio)” value is reported as at most -4.2.
With A28C A40C C54U C87A C93G A115U A150G the “polymerase ribozyme fitness (log ratio)” value was at most -4.2.
For A26G C72A G88A C99U, the “polymerase ribozyme fitness (log ratio)” value was at most -4.2.
With A28G C32G C36U C57U C75G the “polymerase ribozyme fitness (log ratio)” value was at most -4.2.
In the case of C27U A28G, the “polymerase ribozyme fitness (log ratio)” value is reported as at most -4.2.
For C27U G70A C87A, the “polymerase ribozyme fitness (log ratio)” value was at most -4.2.
With C27G A29G G46A G50A C85U C103A A137G G141U the “polymerase ribozyme fitness (log ratio)” value was at most -4.2.
In the case of A26U C63U G83A G94C U101A U134A U144G, the “polymerase ribozyme fitness (log ratio)” value is reported as at most -4.2.
With C27G A40U G58A A73C C76U C95G the “polymerase ribozyme fitness (log ratio)” value was at most -4.2.
For A26U G88A A89C C95G U101C, the “polymerase ribozyme fitness (log ratio)” value was at most -4.2.
In the case of A28C A47G G48A C63U G83A C118U, the “polymerase ribozyme fitness (log ratio)” value is reported as at most -4.2.
With C27G A110U the “polymerase ribozyme fitness (log ratio)” value was at most -4.2.
For A28C U44A G59A C125A G143C, the “polymerase ribozyme fitness (log ratio)” value was at most -4.2.
For A28U A39U U55A C79U G84A A113G U139C G143A, the “polymerase ribozyme fitness (log ratio)” value was at most -4.2.
With C27G G71C G80U C85G the “polymerase ribozyme fitness (log ratio)” value was at most -4.2.
In the case of C27A A29U A91G A120U, the “polymerase ribozyme fitness (log ratio)” value is reported as at most -4.2.
In the case of A26U G81A G86A A91C C95U C103A U144C A150C, the “polymerase ribozyme fitness (log ratio)” value is reported as at most -4.2.
With A28C U53A U55A U78A the “polymerase ribozyme fitness (log ratio)” value was at most -4.2.
In the case of A26U C38G G92A, the “polymerase ribozyme fitness (log ratio)” value is reported as at most -4.2.
For A26U U53G G83A U144C, the “polymerase ribozyme fitness (log ratio)” value was at most -4.2.
With A26U C38U A47G A49U A52G G92U C103A C114A the “polymerase ribozyme fitness (log ratio)” value was at most -4.2.
With C27A C43A A52U U55A U56A G92U the “polymerase ribozyme fitness (log ratio)” value was at most -4.2.
For C27A A110G, the “polymerase ribozyme fitness (log ratio)” value was at most -4.2.
In the case of C27G A28G C69G C93G C95U, the “polymerase ribozyme fitness (log ratio)” value is reported as at most -4.2.
With A28C U134C the “polymerase ribozyme fitness (log ratio)” value was at most -4.2.
With A26U A49C U111G the “polymerase ribozyme fitness (log ratio)” value was at most -4.2.
For A28C G48C U56A U82G G86A G124A G152U, the “polymerase ribozyme fitness (log ratio)” value was at most -4.2.
For C27G C85G C93U, the “polymerase ribozyme fitness (log ratio)” value was at most -4.2.
For A26G C36G A49C C85A G124A U139A G143U, the “polymerase ribozyme fitness (log ratio)” value was at most -4.2.
For A28C G80C U82G G88C U130C, the “polymerase ribozyme fitness (log ratio)” value was at most -4.2.
With C27U C75G C85A C105G U130G U146G the “polymerase ribozyme fitness (log ratio)” value was at most -4.2.
For C27A G48U C54U G83C C118U A120U A121U, the “polymerase ribozyme fitness (log ratio)” value was at most -4.2.
For C27U G62U A120C A122U, the “polymerase ribozyme fitness (log ratio)” value was -2.46.
For A26G G50C U55A A64U C96U, the “polymerase ribozyme fitness (log ratio)” value was at most -4.2.
In the case of A28U A29U A41C G86A A115U, the “polymerase ribozyme fitness (log ratio)” value is reported as at most -4.2.
In the case of A26G C36U C95A, the “polymerase ribozyme fitness (log ratio)” value is reported as at most -4.2.
For C27U C85A C93G G126A, the “polymerase ribozyme fitness (log ratio)” value was at most -4.2.
With A26G G124C A138C the “polymerase ribozyme fitness (log ratio)” value was at most -4.2.
In the case of A28C G83C G128U, the “polymerase ribozyme fitness (log ratio)” value is reported as at most -4.2.
In the case of A26U A30C A138C U139A, the “polymerase ribozyme fitness (log ratio)” value is reported as at most -4.2.
With A26U G59A G83A C87G C93G A97G U104C U139C the “polymerase ribozyme fitness (log ratio)” value was at most -4.2.
For A28C G50C C99U A107U A142U A150G, the “polymerase ribozyme fitness (log ratio)” value was at most -4.2.
In the case of A26G A147C U148A, the “polymerase ribozyme fitness (log ratio)” value is reported as at most -4.2.
With C27G G50A C99U the “polymerase ribozyme fitness (log ratio)” value was at most -4.2.
With A28C C51U U55A C57U U78G G83A U144G the “polymerase ribozyme fitness (log ratio)” value was at most -4.2.
In the case of A26U U61A C96G A120U, the “polymerase ribozyme fitness (log ratio)” value is reported as at most -4.2.
In the case of A28C U53A G92A, the “polymerase ribozyme fitness (log ratio)” value is reported as at most -4.2.
For A26U U101G G117U A137U, the “polymerase ribozyme fitness (log ratio)” value was at most -4.2.
In the case of A26U A49U A91U C116A, the “polymerase ribozyme fitness (log ratio)” value is reported as at most -4.2.
For A28G A29U A49U G67C C85U U90G C96G, the “polymerase ribozyme fitness (log ratio)” value was at most -4.2.
